Test results: the supplement of paper PMC4604168 (melanoma cell lines)
The other results are listed elsewhere or left out. Many values rest on one well or one pass, so single values are uncertain.

Assays:
Assay in all cases: cell count relative to DMSO control; melanoma cells; higher = more viable cells
Details in all cases: library dose: standard library concentration; 72 h
[1] = tested on: G361
[2] = tested on: IPC-298
[3] = tested on: IST-MEL1
[4] = tested on: LB2518-MEL
[5] = tested on: LOXIMVI
[6] = tested on: MEL-HO
[7] = tested on: MZ2-MEL
[8] = tested on: MeWo
[9] = tested on: RPMI7951
[10] = tested on: RVH-421
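Also: cells treated in 1,536-well plates, then fixed and DAPI-stained, with nuclei counted from automated high-throughput microscope images.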

Compound	cell count [1] [%]	cell count [2] [%]	cell count [3] [%]	cell count [4] [%]	cell count [5] [%]	cell count [6] [%]	cell count [7] [%]	cell count [8] [%]	cell count [9] [%]	cell count [10] [%]
Cc1nc(Nc2ncc(C(=O)Nc3c(C)cccc3Cl)s2)cc(N2CCN(CCO)CC2)n1 [dasatanib] + Cn1c(Nc2ccc(C(F)(F)F)cc2)nc2cc(Oc3ccnc(-c4ncc(C(F)(F)F)[nH]4)c3)ccc21 [CHIR265] (first compound 0.02 µM, partner dose 0.4 µM)	19.8	33.6	46.6	31.9	18.3	42.9	35.2	62	19.9	43.8
NC(=O)Nc1cc(-c2cccc(F)c2)sc1C(=O)N[C@H]1CCCNC1 + CN(C)S(=O)(=O)c1ccc2c(c1)/C(=C/c1cc3c([nH]1)CCCC3)C(=O)N2 [SU6656] (first compound 0.1 µM, partner dose 2 µM)	80.9	90.9	68.9	64.5	56.4	59.6	110	51.2	35.4	75.7
Cc1nc(Nc2ncc(C(=O)Nc3c(C)cccc3Cl)s2)cc(N2CCN(CCO)CC2)n1 [dasatanib] + COc1ccc2c(c1)CCC1C2CCC2(C)C(NCCCCCCN3C(=O)C=CC3=O)CCC12 [U73122] (first compound 0.02 µM, partner dose 2 µM)	67.6	87.2	60.8	76.5	26.9	80.7	72.2	52.2	16.9	59.1
CO[C@@H]1[C@H](N(C)C(=O)c2ccccc2)C[C@H]2O[C@]1(C)n1c3ccccc3c3c4c(c5c6ccccc6n2c5c31)C(=O)NC4 [Midostaurin] + COc1ccc(COc2ccc(Cc3cnc(N)nc3N)cc2OC)cc1 [GW2580] (first compound 0.4 µM, partner dose 5 µM)	49.7	65.6	84.9	65.3	76.3	72.3	55.6	72.2	43.7	76.1
C=CCn1c(=O)c2cnc(Nc3ccc(N4CCN(C)CC4)cc3)nc2n1-c1cccc(C(C)(C)O)n1 + COC(=O)c1sccc1S(=O)(=O)Nc1ccc(Nc2ccccc2)cc1OC [GSK0660] (first compound 0.1 µM, partner dose 5 µM)	70.9	79.1	104	48.4	130	92.2	98.3	80.4	83.4	87.6
C[C@]1(c2nc3c(C(N)=O)cccc3[nH]2)CCCN1 [Veliparib] + CCCCCCCCCCCC1=C(O)C(=O)C=C(O)C1=O [Embelin] (first compound 7 µM, partner dose 6 µM)	77.3	72.3	62.4	76.3	105	79.8	59.2	92.7	83	67.6
NC(=O)Nc1cc(-c2cccc(F)c2)sc1C(=O)N[C@H]1CCCNC1 + O=c1cc(-c2cccc3c2Sc2ccccc2S3)oc(N2CCOCC2)c1 [KU55933] (first compound 0.1 µM, partner dose 5 µM)	78.8	92.4	92.5	68.1	77.1	73.4	96.1	98.3	49.8	296
CO[C@@H]1[C@H](N(C)C(=O)c2ccccc2)C[C@H]2O[C@]1(C)n1c3ccccc3c3c4c(c5c6ccccc6n2c5c31)C(=O)NC4 [Midostaurin] + O=C(O)c1ccc(-c2c[nH]c3ncc(-c4ccccc4)cc23)cc1C1CCCC1 [GSK650394] (first compound 0.4 µM, partner dose 0.8 µM)	49.9	56.1	58.8	64	62.1	53.6	61.9	75.7	53.9	70.3
Cc1nc(Nc2ncc(C(=O)Nc3c(C)cccc3Cl)s2)cc(N2CCN(CCO)CC2)n1 [dasatanib] + COc1ccc(-c2ccc3c(N4CCOCC4)nc(N4C[C@@H](C)O[C@@H](C)C4)nc3n2)cc1CO [KU0063794] (first compound 0.02 µM, partner dose 0.1 µM)	60.4	70	52.3	61.5	6.63	71.6	28.7	64.9	18.9	48.9
NC(=O)Nc1cc(-c2cccc(F)c2)sc1C(=O)N[C@H]1CCCNC1 + O=C(O)C(=O)Nc1sc2c(c1C(=O)O)CCNC2 [TCS401] (first compound 0.1 µM, partner dose 8.33333 µM)	82.8	86.4	110	60.8	94.9	78.9	105	56.8	41.8	91
Cc1nc(Nc2ncc(C(=O)Nc3c(C)cccc3Cl)s2)cc(N2CCN(CCO)CC2)n1 [dasatanib] + O=C(O)c1ccc(-c2c[nH]c3ncc(-c4ccccc4)cc23)cc1C1CCCC1 [GSK650394] (first compound 0.02 µM, partner dose 0.8 µM)	59.3	98.6	53.6	101	26.6	69.9	61.8	80.1	37.8	55.4
NC(=O)Nc1cc(-c2cccc(F)c2)sc1C(=O)N[C@H]1CCCNC1 + COc1cc2c(Oc3ccc4[nH]c(C)cc4c3F)ncnc2cc1OCCCN1CCCC1 [cediranib] (first compound 0.1 µM, partner dose 2 µM)	82.8	74.7	85.3	60.4	42.9	77	107	60.6	24.7	108
Cc1nc(Nc2ncc(C(=O)Nc3c(C)cccc3Cl)s2)cc(N2CCN(CCO)CC2)n1 [dasatanib] + O=c1cc(-c2cccc3c2Sc2ccccc2S3)oc(N2CCOCC2)c1 [KU55933] (first compound 0.02 µM, partner dose 5 µM)	47.4	87.6	65.2	86.9	37.4	71.5	57	82.9	56.2	58.9
OCCn1cc(-c2cnc3nnn(Cc4ccc5ncccc5c4)c3n2)cn1 + COc1ccc(COc2ccc(Cc3cnc(N)nc3N)cc2OC)cc1 [GW2580] (first compound 5 µM, partner dose 5 µM)	95.8	97.8	95.8	87.9	104	91	95.7	87.3	84.2	96.7
C[C@]1(c2nc3c(C(N)=O)cccc3[nH]2)CCCN1 [Veliparib] + Cn1cncc1[C@@](N)(c1ccc(Cl)cc1)c1ccc2c(c1)c(-c1cccc(Cl)c1)cc(=O)n2C [tipifarnib] (first compound 7 µM, partner dose 0.05 µM)	63.9	86.4	62.9	52.6	53.2	85.8	96.5	66.8	59.1	64.3
Cc1nc(Nc2ncc(C(=O)Nc3c(C)cccc3Cl)s2)cc(N2CCN(CCO)CC2)n1 [dasatanib] + COc1cc2c(Oc3ccc4[nH]c(C)cc4c3F)ncnc2cc1OCCCN1CCCC1 [cediranib] (first compound 0.02 µM, partner dose 2 µM)	67.9	95.8	71.8	92.5	12.6	95.1	66.9	62.4	10.8	48.6
C=CCn1c(=O)c2cnc(Nc3ccc(N4CCN(C)CC4)cc3)nc2n1-c1cccc(C(C)(C)O)n1 + CCN(CC)CCCCNc1ncc2cc(-c3cc(OC)cc(OC)c3)c(NC(=O)NC(C)(C)C)nc2n1 [PD173074] (first compound 0.1 µM, partner dose 0.5 µM)	87.3	84.2	114	47.4	60.2	101	91.1	75.7	52.6	93.5
C=CCn1c(=O)c2cnc(Nc3ccc(N4CCN(C)CC4)cc3)nc2n1-c1cccc(C(C)(C)O)n1 + NC(=O)Nc1cc(-c2cccc(F)c2)sc1C(=O)N[C@H]1CCCNC1 [AZD7762] (first compound 0.1 µM, partner dose 0.1 µM)	59.5	38.9	51.4	28	54.1	43.9	126	15.7	13.1	100
C[C@]1(c2nc3c(C(N)=O)cccc3[nH]2)CCCN1 [Veliparib] + O=C(Nc1ccccc1)c1cc([N+](=O)[O-])ccc1Cl [GW9662] (first compound 7 µM, partner dose 10 µM)	67.5	105	86.8	69.1	60.7	98.3	73.9	77	107	73.6
CN(C)S(=O)(=O)c1ccc2c(c1)/C(=C/c1cc3c([nH]1)CCCC3)C(=O)N2 + Oc1nc(-c2ccc(C(F)(F)F)cc2)nc2c1CSCC2 [XAV939] (first compound 2 µM, partner dose 10 µM)	56.7	66.4	78.8	91.1	123	81.5	75.3	78.1	50.5	84.5
Cc1nc(Nc2ncc(C(=O)Nc3c(C)cccc3Cl)s2)cc(N2CCN(CCO)CC2)n1 [dasatanib] + Nc1cccc2c1CN(C1CCC(=O)NC1=O)C2=O [lenalidomide] (first compound 0.02 µM, partner dose 5 µM)	67.7	81.6	65.5	72.4	35.4	66.4	61.7	68.2	38.4	149
